Results: patent US9873709B2 (priority 2013, dated 2018)

Molecular target: isolated recombinant JAK1 kinase domain (Homo sapiens (Human), UniProt P23458)
Details: read-out: JAK1 Ki; isolated recombinant JAK1 kinase domain, 25 μM ATP

Point of comparison: `CN1CCC(N(C)C(=O)c2ccc(Nc3nc4c(N5CCC(CC(N)=O)(c6ccccc6)CC5)cccn4n3)cc2)CC1` [Example 1-30, 4-[[8-[4-(2-amino-2-oxo-ethyl)-4-phenyl-1-piperidyl]-[1,2,4]triazolo[1,5-a]pyridin-2-yl]amino]-N-methyl-N-(1-methyl-4-piperidyl)benzamide], Ki 1.7 nM. Against it:
- CN1CCC(N(C)C(=O)c2ccc(Nc3nc4c(N5CCC(C)(c6ccccc6)CC5)cccn4n3)cc2)CC1 [Example 1-1, N-methyl-4-(8-(4-methyl-4-phenylpiperidin-1-yl)-[1,2,4]triazolo[1,5-a]pyridin-2-ylamino)-N-(1-methylpiperidin-4-yl)benzamide] — 9.8-fold higher, 16.7 nM
- CN1CCC(N(C)C(=O)c2ccc(Nc3nc4c(N5CCC(O)(C6CCCCC6)CC5)cccn4n3)cc2)CC1 [Example 1-2, 4-[[8-(4-cyclohexyl-4-hydroxy-1-piperidyl)-[1,2,4]triazolo[1,5-a]pyridin-2-yl]amino]-N-methyl-N-(1-methyl-4-piperidyl)benzamide] — 44-fold higher, 74 nM
- COC1(c2ccccc2)CCN(c2cccn3nc(Nc4ccc(C(=O)N(C)C5CCN(C)CC5)cc4)nc23)CC1 [Example 1-5, 4-[[8-(4-methoxy-4-phenyl-1-piperidyl)-[1,2,4]triazolo[1,5-a]pyridin-2-yl]amino]-N-methyl-N-(1-methyl-4-piperidyl)benzamide; hydrochloride] — 26-fold higher, 44.8 nM
- CN1CCC(N(C)C(=O)c2ccc(Nc3nc4c(N5CCCC(O)(c6ccccc6)CC5)cccn4n3)cc2)CC1 (centres unmarked) [Example 1-7, 4-[[8-(4-hydroxy-4-phenyl-azepan-1-yl)-[1,2,4]triazolo[1,5-a]pyridin-2-yl]amino]-N-methyl-N-(1-methyl-4-piperidyl)benzamide] — 37-fold higher, 62.1 nM
- COC1CCN(c2cccn3nc(Nc4ccc(C(=O)N(C)C5CCN(C)CC5)cc4)nc23)CC1 [Example 1-8, 4-[[8-(4-methoxy-1-piperidyl)-[1,2,4]triazolo[1,5-a]pyridin-2-yl]amino]-N-methyl-N-(1-methyl-4-piperidyl)benzamide] — 82-fold higher, 140 nM
- CN1CCC(N(C)C(=O)c2ccc(Nc3nc4c(N5CCC=C(c6ccccc6)CC5)cccn4n3)cc2)CC1 [Example 1-14, N-methyl-N-(1-methyl-4-piperidyl)-4-[[8-(4-phenyl-2,3,6,7-tetrahydroazepin-1-yl)-[1,2,4]triazolo[1,5-a]pyridin-2-yl]amino]benzamide] — 31-fold higher, 52.4 nM
- CN1CCC(N(C)C(=O)c2ccc(Nc3nc4c(N5CC=C(c6ccccc6)CCC5)cccn4n3)cc2)CC1 [Example 1-15, N-methyl-N-(1-methyl-4-piperidyl)-4-[[8-(5-phenyl-2,3,4,7-tetrahydroazepin-1-yl)-[1,2,4]triazolo[1,5-a]pyridin-2-yl]amino]benzamide] — 110-fold higher, 187 nM
- CN1CCC(N(C)C(=O)c2ccc(Nc3nc4c(N5CCC(F)(c6ccccc6)CC5)cccn4n3)cc2)CC1 [Example 1-16, 4-[[8-(4-fluoro-4-phenyl-1-piperidyl)-[1,2,4]triazolo[1,5-a]pyridin-2-yl]amino]-N-methyl-N-(1-methyl-4-piperidyl)benzamide] — 110-fold higher, 185 nM
- CN1CCC(N(C)C(=O)c2ccc(Nc3nc4c(N5CCC(O)(c6cccc(Cl)c6)CC5)cccn4n3)cc2)CC1 [Example 1-18, 4-[[8-[4-(3-chlorophenyl)-4-hydroxy-1-piperidyl]-[1,2,4]triazolo[1,5-a]pyridin-2-yl]amino]-N-methyl-N-(1-methyl-4-piperidyl)benzamide] — 52-fold higher, 87.9 nM
- CN1CCC(N(C)C(=O)c2ccc(Nc3nc4c(N5CCC(O)(c6ccncc6)CC5)cccn4n3)cc2)CC1 [Example 1-20, 4-[[8-[4-hydroxy-4-(4-pyridyl)-1-piperidyl]-[1,2,4]triazolo[1,5-a]pyridin-2-yl]amino]-N-methyl-N-(1-methyl-4-piperidyl)benzamide] — 120-fold higher, 197 nM
- CN1CCC(N(C)C(=O)c2ccc(Nc3nc4c(N5CCC(O)(c6ccc(C#N)cc6)CC5)cccn4n3)cc2)CC1 [Example 1-21, 4-[[8-[4-(4-cyanophenyl)-4-hydroxy-1-piperidyl]-[1,2,4]triazolo[1,5-a]pyridin-2-yl]amino]-N-methyl-N-(1-methyl-4-piperidyl)benzamide] — 8.6-fold higher, 14.6 nM
- CN1CCC(N(C)C(=O)c2ccc(Nc3nc4c(N5CCC(O)(c6cccc(C#N)c6)CC5)cccn4n3)cc2)CC1 [Example 1-22, 4-[[8-[4-(3-cyanophenyl)-4-hydroxy-1-piperidyl]-[1,2,4]triazolo[1,5-a]pyridin-2-yl]amino]-N-methyl-N-(1-methyl-4-piperidyl)benzamide] — 100-fold higher, 171 nM
- CN1CCC(N(C)C(=O)c2ccc(Nc3nc4c(N5CCC(OCC#N)CC5)cccn4n3)cc2)CC1 [Example 1-23, 4-[[8-[4-(cyanomethoxy)-1-piperidyl]-[1,2,4]triazolo[1,5-a]pyridin-2-yl]amino]-N-methyl-N-(1-methyl-4-piperidyl)benzamide] — 6.5-fold higher, 11.1 nM
- CN1CCC(N(C)C(=O)c2ccc(Nc3nc4c(N5CCC6(CNC(=O)O6)C5)cccn4n3)cc2)CC1 (centres unmarked) [Example 1-24, N-methyl-N-(1-methyl-4-piperidyl)-4-[[8-(2-oxo-1-oxa-3,7-diazaspiro[4.4]nonan-7-yl)-[1,2,4]triazolo[1,5-a]pyridin-2-yl]amino]benzamide] — 92-fold higher, 157 nM
- CN1CCC(N(C)C(=O)c2ccc(Nc3nc4c(N5CCC6(CC5)CNC(=O)C6)cccn4n3)cc2)CC1 [Example 1-27, N-methyl-N-(1-methyl-4-piperidyl)-4-[[8-(3-oxo-2,8-diazaspiro[4.5]decan-8-yl)-[1,2,4]triazolo[1,5-a]pyridin-2-yl]amino]benzamide] — 130-fold higher, 221 nM
- CN1CCC(N(C)C(=O)c2ccc(Nc3nc4c(N5CCC6(CC5)CNC(=O)O6)cccn4n3)cc2)CC1 [Example 1-28, N-methyl-N-(1-methyl-4-piperidyl)-4-[[8-(2-oxo-1-oxa-3,8-diazaspiro[4.5]decan-8-yl)-[1,2,4]triazolo[1,5-a]pyridin-2-yl]amino]benzamide] — 41-fold higher, 70.4 nM
- CN1CCC(N(C)C(=O)c2ccc(Nc3nc4c(N5CCN6C(=O)NCCC6C5)cccn4n3)cc2)CC1 (centres unmarked) [Example 1-31, N-methyl-N-(1-methyl-4-piperidyl)-4-[[8-(6-oxo-3,4,7,8,9,9a-hexahydro-1H-pyrazino[1,2-c]pyrimidin-2-yl)-[1,2,4]triazolo[1,5-a]pyridin-2-yl]amino]benzamide] — 270-fold higher, 453 nM
- CN1CCC(N(C)C(=O)c2ccc(Nc3nc4c(N5CCN(C(=O)N6CC(C)(C)C6)CC5)cccn4n3)cc2)CC1 [Example 1-34, 4-[[8-[4-(3,3-dimethylazetidine-1-carbonyl)piperazin-1-yl]-[1,2,4]triazolo[1,5-a]pyridin-2-yl]amino]-N-methyl-N-(1-methyl-4-piperidyl)benzamide] — 11-fold higher, 18.7 nM
- CN1CCC(N(C)C(=O)c2ccc(Nc3nc4c(N5CCC(O)(c6ccccc6Cl)CC5)cccn4n3)cc2)CC1 [Example 1-35, 4-[[8-[4-(2-chlorophenyl)-4-hydroxy-1-piperidyl]-[1,2,4]triazolo[1,5-a]pyridin-2-yl]amino]-N-methyl-N-(1-methyl-4-piperidyl)benzamide] — 110-fold higher, 184 nM
- CCc1ccc(C2(O)CCN(c3cccn4nc(Nc5ccc(C(=O)N(C)C6CCN(C)CC6)cc5)nc34)CC2)cc1 [Example 1-36, 4-[[8-[4-(4-ethylphenyl)-4-hydroxy-1-piperidyl]-[1,2,4]triazolo[1,5-a]pyridin-2-yl]amino]-N-methyl-N-(1-methyl-4-piperidyl)benzamide] — 4.3-fold higher, 7.35 nM
- Cc1ccc(C2(O)CCN(c3cccn4nc(Nc5ccc(C(=O)N(C)C6CCN(C)CC6)cc5)nc34)CC2)cc1 [Example 1-39, 4-[[8-[4-hydroxy-4-(p-tolyl)-1-piperidyl]-[1,2,4]triazolo[1,5-a]pyridin-2-yl]amino]-N-methyl-N-(1-methyl-4-piperidyl)benzamide] — 4.5-fold higher, 7.73 nM
- COc1ccc(C2(O)CCN(c3cccn4nc(Nc5ccc(C(=O)N(C)C6CCN(C)CC6)cc5)nc34)CC2)cc1 [Example 1-40, 4-[[8-[4-hydroxy-4-(4-methoxyphenyl)-1-piperidyl]-[1,2,4]triazolo[1,5-a]pyridin-2-yl]amino]-N-methyl-N-(1-methyl-4-piperidyl)benzamide] — 6.8-fold higher, 11.5 nM
- CN1CCC(N(C)C(=O)c2ccc(Nc3nc4c(N5CCC(CC#N)(c6ccccc6)CC5)cccn4n3)cc2)CC1 [Example 1-41, 4-[[8-[4-(cyanomethyl)-4-phenyl-1-piperidyl]-[1,2,4]triazolo[1,5-a]pyridin-2-yl]amino]-N-methyl-N-(1-methyl-4-piperidyl)benzamide] — within 1.5-fold, 2.05 nM
- CN1CCC(N(C)C(=O)c2ccc(Nc3nc4c(N5CCC(C(=O)N6CC(C)(C)C6)CC5)cccn4n3)cc2)CC1 [Example 1-42, 4-{8-[4-(3,3-Dimethyl-azetidine-1-carbonyl)-piperidin-1-yl]-1,8a-dihydro [1,2,4]triazolo[1,5a]pyridine-2-ylamino}-N-methyl-N-(1-methyl-piperidin-4-yl)-benzamide] — 540-fold higher, 920 nM
- CN1CCC(N(C)C(=O)c2ccc(Nc3nc4c(N5CCC(O)(c6ccccc6)CC5)cccn4n3)cc2)CC1 [Example 1-43, 4-[[8-(4-hydroxy-4-phenyl-1-piperidyl)-[1,2,4]triazolo[1,5-a]pyridin-2-yl]amino]-N-methyl-N-(1-methyl-4-piperidyl)benzamide] — 18-fold higher, 31 nM
- COCCOc1cc(COC2CCN(c3cccn4nc(Nc5ccc(C(=O)N(C)C6CCN(C)CC6)cc5)nc34)CC2)ccn1 [Example 1-44, 4-[[8-[4-[[2-(2-methoxyethoxy)-4-pyridyl]methoxy]-1-piperidyl]-[1,2,4]triazolo[1,5-a]pyridin-2-yl]amino]-N-methyl-N-(1-methyl-4-piperidyl)benzamide] — 31-fold higher, 52.4 nM
- CN1CCC(N(C)C(=O)c2ccc(Nc3nc4c(N5CCC(C#N)(c6ccccc6)CC5)cccn4n3)cc2)CC1 [Example 1-45, 4-[[8-(4-cyano-4-phenyl-1-piperidyl)-[1,2,4]triazolo[1,5-a]pyridin-2-yl]amino]-N-methyl-N-(1-methyl-4-piperidyl)benzamide] — 110-fold higher, 194 nM
- CN1CCC(N(C)C(=O)c2ccc(Nc3nc4c(N5CCc6ccccc6C5)cccn4n3)cc2)CC1 [Example 1-46, 4-[[8-(3,4-dihydro-1H-isoquinolin-2-yl)-[1,2,4]triazolo[1,5-a]pyridin-2-yl]amino]-N-methyl-N-(1-methyl-4-piperidyl)benzamide] — 59-fold higher, 101 nM

Structures can show the parent of a compound that is named as a salt.
